According to article PMC6944527 (The American Journal of Clinical Nutrition, 2019):

Experiments:
[1] = molecular target: T1, ThTR-2 (SLC19A3) (Homo sapiens, UniProt Q9BZV2); assay: Clinical relevance ratio; conditions: based on current FDA guidelines; ratio >10
T1 sequence (Q9BZV2 1-496): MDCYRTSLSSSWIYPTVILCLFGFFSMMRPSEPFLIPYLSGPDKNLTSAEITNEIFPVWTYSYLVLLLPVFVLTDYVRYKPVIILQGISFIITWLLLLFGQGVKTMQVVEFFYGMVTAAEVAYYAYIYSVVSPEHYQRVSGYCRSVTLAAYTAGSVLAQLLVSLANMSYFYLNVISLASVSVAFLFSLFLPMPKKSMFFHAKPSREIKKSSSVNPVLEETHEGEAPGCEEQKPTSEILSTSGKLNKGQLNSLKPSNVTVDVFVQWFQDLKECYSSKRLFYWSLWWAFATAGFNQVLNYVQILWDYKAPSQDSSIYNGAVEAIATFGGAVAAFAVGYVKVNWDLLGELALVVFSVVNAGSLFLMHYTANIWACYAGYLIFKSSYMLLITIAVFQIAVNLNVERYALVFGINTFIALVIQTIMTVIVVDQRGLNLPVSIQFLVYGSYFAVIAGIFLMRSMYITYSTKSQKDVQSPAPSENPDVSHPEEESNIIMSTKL

[2] = molecular target: T1, ThTR-2 (SLC19A3)
[3] = molecular target: T1, ThTR-2 (SLC19A3); assay: Radiometric cell uptake primary screen; format: cell-based

Row | Compound | DDI study recommended [1] | also measured
1 | CN(C)CCC=C1c2ccccc2CCc2ccccc21 [Amitriptyline hydrochloride] | Yes | IC50 [2]: 11.3 ± 2.85 µM
2 | Clc1ccc2c(c1)C(N1CCNCC1)=Nc1ccccc1O2 [Amoxapine] | Yes | IC50 [2]: 46.6 ± 14.7 µM
3 | O=C(O)CC(O)(CC(=O)O)C(=O)O [Citric acid] | – | validation of primary screen call by dose response curves ([2]; 8-point dose response follow-up of screen hits/nonhits): false positive
4 | O=c1[nH]cnc2c1ncn2[C@H]1CC[C@@H](CO)O1 [Didanosine] | No | –
5 | Cc1cnc(Nc2ccc(OCCN3CCCC3)cc2)nc1Nc1cccc(S(=O)(=O)NC(C)(C)C)c1 [Fedratinib] | Yes | –
6 | CN(C)C(=N)N=C(N)N [Metformin hydrochloride] | Yes | –
7 | CC(C)(S)[C@@H](N)C(=O)O [Penicillamine ethanolamine salt] | Yes | IC50 [2]: 857 ± 372 µM
8 | COc1ccc(C[C@H](N)C(=O)N[C@H]2[C@@H](O)[C@H](n3cnc4c(N(C)C)ncnc43)O[C@@H]2CO)cc1 [puromycin] | – | inhibition of thiamine uptake compared to control [3]: ≤ 10%
9 | [H]/N=C(/N)N[C@H]1[C@H](O)[C@@H](O)[C@H](O[C@@H]2O[C@@H](C)[C@](O)(C=O)[C@H]2O[C@@H]2O[C@@H](CO)[C@H](O)[C@@H](O)[C@@H]2NC)[C@@H](N/C(N)=N\[H])[C@@H]1O [streptomycin] | – | inhibition of thiamine uptake compared to control [3]: ≤ 10%
10 | Penicillin | – | inhibition of thiamine uptake compared to control [3]: ≤ 10%

Second part, led by results:

Row | DDI study recommended [1] | Compound | also measured
11 | No | CC[C@@H]([C@H](C)O)n1ncn(-c2ccc(N3CCN(c4ccc(OC[C@@H]5CO[C@@](Cn6cncn6)(c6ccc(F)cc6F)C5)cc4)CC3)cc2)c1=O [Posaconazole] | –
12 | Yes | CCOC(=O)[C@H](CCc1ccccc1)N[C@@H](C)C(=O)N1Cc2ccccc2C[C@H]1C(=O)O [Quinapril] | IC50 [2]: 34 ± 7.36 µM
13 | Yes | CN[C@H]1CC[C@@H](c2ccc(Cl)c(Cl)c2)c2ccccc21 [Sertraline hydrochloride] | –
14 | No | CCCc1nc2c(C)cc(-c3nc4ccccc4n3C)cc2n1Cc1ccc(-c2ccccc2C(=O)O)cc1 [Telmisartan] | IC50 ([2]; Table 1, 250 nM thiamine, 5 min uptake, HEK293-ThTR-2): Not convergent

Where a name gives a salt, the structure may show the parent alone. Read-outs that look alike come from different tables or passages of the source.
